# According to PubChem BioAssay AID624417 (National Center for Advancing Translational Sciences (NCATS), 2012):
# Among all 410,000 compounds or so, about 6,400 (1.6%) were called active. Inconclusive results, whose numbers are uncertain, are shown with a selection of clear calls. Calls come from the whole dose curve; as a rule, active = well fitted inhibition curve with a large enough effect; inconclusive = small, poorly fitted or top-dose-only effect; inactive = no such curve, though single readings can be large or run the other way. No potency is given beside an inconclusive call; the fits are too rough.
# Biological target: Glucagon-like peptide 1 receptor (Homo sapiens) (UniProt P43220)
# Sequence of UniProt P43220 (P43220 whole entry, looked up): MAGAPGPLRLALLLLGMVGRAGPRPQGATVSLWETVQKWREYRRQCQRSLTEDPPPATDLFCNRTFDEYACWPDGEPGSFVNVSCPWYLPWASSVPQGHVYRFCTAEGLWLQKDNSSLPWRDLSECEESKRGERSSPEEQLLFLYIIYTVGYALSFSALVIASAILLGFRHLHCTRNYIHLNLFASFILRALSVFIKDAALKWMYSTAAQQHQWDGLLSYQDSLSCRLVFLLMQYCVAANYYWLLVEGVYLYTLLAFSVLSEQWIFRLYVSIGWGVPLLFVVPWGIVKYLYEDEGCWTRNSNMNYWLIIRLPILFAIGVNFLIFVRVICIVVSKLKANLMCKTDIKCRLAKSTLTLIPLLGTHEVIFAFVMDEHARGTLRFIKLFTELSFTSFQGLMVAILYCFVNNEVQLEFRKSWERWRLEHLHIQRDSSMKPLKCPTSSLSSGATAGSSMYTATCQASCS
# Assay: qHTS of GLP-1 Receptor Inverse Agonists (Inhibition Mode); note: nearly all actives have a fitted effect of over 55% in size
# Settings: HEK293 GLP-1R CRE-luciferase, luminescence, 24 h, GLP-1R form is constitutively active; series mostly up to 38.3 µM
# Summary of the method: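 qHTS in 1536-well format: reporter HEK293 cells expressing constitutive GLP-1R activity in DMEM + 10% Nu serum, 24 hr with compounds at 37 deg C, luminescence read after 12 min with detection reagent.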
# Potency is the fitted concentration of half-maximal effect; tags give direction and shape of the fitted curve.
row,SMILES,Potency
1,Cc1cc(C)cc(NC(=O)C2CCN(C(=O)c3cnn(-c4ccccc4)c3-n3cccc3)CC2)c1,"inconclusive [inhibitor, single point]"
2,Cc1ccccc1OCCNCC(C)O (configuration not stated),"inconclusive [inhibitor, single point]"
3,C=CC[C@@H](CC(=O)NCCO)C(=O)NC[C@H](OC(=O)[C@@H](CC=C)Cc1ccc(F)cc1)c1ccccc1,"inconclusive [inhibitor, partial curve]"
4,O=S(=O)(Nc1c(O)ccc2ccccc12)c1ccccc1,"inconclusive [inhibitor, single point]"
5,Cc1ccc(NC(=O)CCSc2nnc(-c3ccco3)o2)cc1,"inconclusive [inhibitor, full curve, poor fit]"
6,O=C(NCc1cccs1)c1ccc(CSc2nc3cccnc3n2Cc2ccc(F)cc2)cc1,"inconclusive [inhibitor, single point]"
7,CC1CCN(c2ccc(-c3cccc(NS(=O)(=O)c4cccs4)c3)nn2)CC1,"inconclusive [inhibitor, single point]"
8,Cc1ccc(-c2cnc(C(O)c3ccc(Cl)c(F)c3)[nH]2)cc1 (configuration not stated),"inconclusive [inhibitor, single point]"
9,CCn1c(Cc2c(C)[nH]c3ccccc23)n[nH]c1=S,inactive
10,COc1cccc(NC(=O)CN(C)CC(=O)Nc2ccc(C)cc2Cl)c1,"inconclusive [inhibitor, single point]"
11,Nc1ccc(C(=O)n2c3ccccc3c3ccccc32)cc1,"inconclusive [inhibitor, full curve, poor fit]"
12,Cc1ccc(C)c(NC(=S)NCc2ccc3c(c2)OCO3)c1,"inconclusive [inhibitor, single point]"
13,COc1ccc(OC)c(-c2csc(N(CC3CCCO3)C(=O)Cc3ccccc3)n2)c1 (configuration not stated),"inconclusive [inhibitor, single point]"
14,CCOC(=O)c1cn2nc(-c3ccc(OCC)cc3)cc2nc1C1CCN(C(=O)OC(C)(C)C)CC1,inactive
15,COc1cccc(NC(=O)c2csc3c2CCCC3)c1,"inconclusive [inhibitor, single point]"
16,COc1ccc(S(=O)(=O)n2nc(-c3ccco3)nc2NCc2ccc(OC)c(OC)c2)cc1,inactive
17,COc1ccc(N(C(=O)c2ccc(Cl)cc2)S(=O)(=O)c2ccc(C)cc2)cc1,"inconclusive [inhibitor, partial curve, poor fit]"
18,COc1ccc(N(CC(=O)Nc2ccc3c(c2)OCO3)S(=O)(=O)c2ccc(C)cc2)cc1OC,inactive
19,CC(C)[C@H](N[C@@H](C)c1ccccc1)c1c(O)ccc2ccccc12,"inconclusive [inhibitor, single point]"
20,FCCCOc1ccc(/C=N/OCc2ccc(Cl)cc2Cl)cc1,"inconclusive [inhibitor, single point]"
21,CCOc1ccc(CNCc2c(C(=O)O)n(Cc3ccc(OC)cc3)c3ccccc23)cc1,"inconclusive [inhibitor, single point]"

row,SMILES,Potency
1,CN(C)S(=O)(=O)c1cccc(NC(=S)N/N=C/c2cc(Br)ccc2O)c1,"inconclusive [inhibitor, partial curve, poor fit]"
2,Cc1ccc(Cn2c(=O)c3ccccc3n3c(CCC(=O)NCCN4CCOCC4)nnc23)cc1,inactive
3,Cc1c(C(=O)NCC2CCCO2)oc2ccc(S(=O)(=O)N3CC(C)CC(C)C3)cc12 (configuration not stated),"inconclusive [inhibitor, partial curve, poor fit]"
4,CCOC(=O)C1CCN(C(C(=O)Nc2ccc3c(c2)OCCO3)c2ccccc2)CC1 (configuration not stated),"inconclusive [inhibitor, single point]"
5,C#CCn1cc[n+](CC(=O)N(C)C)c1,inactive
6,Cc1cccc(N2C(=O)N3[C@H](c4ccc(Br)cc4)[C@@H]4C(=O)N(C(C)(C)C)C(=O)[C@@H]4[C@]3(Cc3ccc(Cl)cc3)C2=O)c1,"inconclusive [inhibitor, full curve]"
7,COc1ccccc1N1CCN(C(=O)c2cc(-c3ccc(F)cc3)[nH]c2C)CC1,active: 11.2 µM
8,CN(Cc1c(F)cccc1Cl)C(=O)c1cc2ccccc2o1,"inconclusive [inhibitor, single point]"
9,O=C(O)c1ccc(C=C(c2nc3ccccc3s2)c2nc3ccccc3s2)cc1,"inconclusive [inhibitor, partial curve, poor fit]"
10,COc1cc(C2c3c(-c4c(C)cc(C)cc4O)n[nH]c3C(=O)N2CCCOC(C)C)cc(OC)c1OC (configuration not stated),inactive
11,O=S(=O)(NCCOc1ccccc1Cl)c1ccc2oc3ccccc3c2c1,"inconclusive [inhibitor, partial curve, poor fit]"
12,CCOC(=O)c1cnc2c(C)c(C)ccc2c1NCCN1CCOCC1,"inconclusive [inhibitor, single point]"
13,CCc1ccccc1NC(=O)CN1C(=O)COc2ccc(S(=O)(=O)Nc3ccccc3)cc21,inactive
14,CCC1CCCCN1c1cc(C)nc2cc(-c3cccc(C)c3)nn12 (configuration not stated),"inconclusive [inhibitor, single point]"
15,OCC1(CCc2ccccc2)CCN(C/C=C/c2ccccc2)CC1,"inconclusive [inhibitor, partial curve, poor fit]"
16,CCC1CN(S(=O)(=O)c2ccc3c(c2)NC(=O)CC(=O)N3)c2cc(Cl)ccc2O1 (configuration not stated),"inconclusive [inhibitor, partial curve, poor fit]"
17,Cc1ccc(N2C(=O)CS(=O)(=O)CC2=O)cc1,"inconclusive [inhibitor, single point]"
18,CS(=O)(=O)N(Cc1ccc(C(=O)N2CCc3ccccc3C2)cc1)c1ccccc1,"inconclusive [inhibitor, partial curve, poor fit]"
19,CC1(C)CC(N2CCN(C(c3ccccc3)c3ccccc3)CC2)=CC(=[N+]2CCCCC2)C1,"inconclusive [inhibitor, partial curve, poor fit]"
20,CCN1/C(=C/c2ccc3cc(C)cc(C)c3[n+]2CC)Sc2cc(C)ccc21,inactive
21,CCN(c1ccccc1)c1nc2ccsc2c(=O)s1,"inconclusive [inhibitor, single point]"

row,SMILES,Potency
1,CCn1c(C(O)c2cc(OC)ccc2OC)nc2ccccc21 (configuration not stated),inactive
2,Cc1cc(C)cc(-n2c3ccc(NC(=O)Cc4cccc5ccccc45)cc3c(=O)n2C)c1,"inconclusive [inhibitor, full curve, poor fit]"
3,O=C(Nc1cccc(NC(=O)C2C3CC4OC(=O)C2C4C3)c1)c1ccccc1 (configuration not stated),"inconclusive [inhibitor, partial curve, poor fit]"
4,Cc1nc2cc(-c3cccc(F)c3)nn2c(C)c1CCC(=O)NC(C)c1ccc2c(c1)OCCO2 (configuration not stated),"inconclusive [inhibitor, single point]"
5,CCC/C=C(\CCC)C(NC(=O)Cc1ccccc1)c1ccc(C(=O)OC)cc1 (configuration not stated),"inconclusive [inhibitor, partial curve, poor fit]"
6,CCOc1ccc(S(=O)(=O)N(CC(=O)NCc2ccncc2)c2ccc(C)cc2)cc1,"inconclusive [inhibitor, partial curve, poor fit]"
7,O=C(NCc1ccco1)c1c2c(nc3ccccc13)CCC2,inactive
8,Cc1ccc(Cl)cc1N1CCN(C(=O)CCCn2c(=O)c3cccn3c3cccnc32)CC1,"inconclusive [inhibitor, single point]"
9,Cc1ccc(OCCC(=O)Nc2ccc(C)c(F)c2)cc1,"inconclusive [inhibitor, single point]"
10,Cc1c(Cl)cccc1-n1c(SCC(=O)NCc2cccs2)nnc1-c1ccncc1,"inconclusive [inhibitor, partial curve]"
11,COc1ccc(C(=O)C2CCCN(C(=O)c3cnsn3)C2)c(C)c1 (configuration not stated),"inconclusive [inhibitor, partial curve, poor fit]"
12,Cc1ccc(N2Cc3ccccc3C2=O)cc1,"inconclusive [inhibitor, single point]"
13,CCCc1c(C(=O)N2CCN(c3ccccc3OC)CC2)cnn1-c1ccccc1,"inconclusive [inhibitor, single point]"
14,COc1ccc(C(C)(O)c2nc(-c3cccc(C(C)C)c3)cs2)cc1 (configuration not stated),"inconclusive [inhibitor, single point]"
15,O=C(C1COc2ccccc2O1)N1CCN(Cc2ccc3c(c2)OCO3)CC1 (configuration not stated),"inconclusive [inhibitor, partial curve, poor fit]"
16,O=C(NN=Cc1ccc2c(c1)OCO2)c1ccccc1,"inconclusive [inhibitor, single point]"
17,CCCCCCSc1nsc(NC(=O)CCC)n1,"inconclusive [inhibitor, single point]"
18,CNC1=C(N(C(C)=O)c2ccc(Br)cc2)C(=O)c2ccccc2C1=O,"inconclusive [inhibitor, partial curve, poor fit]"
19,CC(C)(C)S(=O)N1Cc2cc(C(=O)N3CCOCC3)nc(-c3cccc(Br)c3)c2[C@H]1CCO (some centres not stated),inactive
20,O=C(NCCC1=CCCCC1)C1CCN(c2nnc(-n3cccc3)s2)CC1,"inconclusive [inhibitor, single point]"
